Drawing on the supplement of paper PMC4723716, this text covers viability index for 36 compounds.

± gives the uncertainty stated by the source. Whole data set: some 9,900 compounds, median “viability index relative to DMSO control” near 1, cut for the lowest 2% near 0.85. Some of the results follow.

In this test the test system is Plasmodium falciparum NF54 stage V gametocytes. The test can be described thus: viability index relative to DMSO control (fraction); higher = less gametocyte killing. The conditions noted are these: 2.5 µM, incubation time: 72 h. The method, boiled down:
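P. falciparum NF54 stage V gametocytes (serum-free medium, 0.75% gametocytemia, 1.25% hematocrit) were exposed to compound at 2.5 µM for 72 hr at 37°C under low oxygen, then stained with MitoTracker Red CMXRos and saponin for one to two hours. Red particles of 20–70 µm2 in one field per well were counted, and the viability index is that count scaled to the plate mean of solvent-only wells.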

The mark [1] stands for this setting: library set: Broad Institute DOS.

`C[C@H](NC(=O)[C@@H]1[C@@H](CO)[C@@H]2Cn3c(ccc(-c4ccccc4F)c3=O)[C@H]1N2)c1ccccc1` yielded a viability index under setting [1] of 1.11 ± 0.017. Same read-out and setting: the same measure for `CO[C@H]1CC[C@@H]2CCOc3ccc(C#N)cc3C(=O)N(C)[C@@H](C)C(=O)N(C)C[C@H]1O2`: 1 ± 0.018; for `CCS(=O)(=O)N(C)C[C@H]1[C@@H](c2ccccc2)[C@@H](CO)N1C(=O)CN(C)C`: 1.019 ± 0.0043. `N#C[C@H]1[C@H](c2ccccc2)[C@H](CO)N1C(=O)c1cc(Cl)cc(Cl)c1` came in with a viability index under setting [1] of 1.03 ± 0.059. The same measure, in the same setting: the same measure for `COc1ccc2c3c([C@H](CO)N(C[C@]33CN(Cc4nccs4)C3)C(=O)CN(C)C)n(C)c2c1`: 1.03 ± 0.015.

`CC(C)NC(=O)NCC[C@H]1CC[C@@H](NS(=O)(=O)c2ccc(Oc3ccccc3)cc2)[C@@H](CO)O1` registered a viability index under setting [1] of 1.07 ± 0.011. On to `O=C(NC[C@H]1[C@@H](c2ccccc2)[C@@H](CO)N1C(=O)C1CCC1)NC1CCCC1`, for which the viability index under setting [1] turned out to be 0.986 ± 0.038. `COc1ccccc1-c1ccc2c(c1)[C@H]1[C@H](CCN1S(=O)(=O)c1ccc(C)cc1)[C@@H](CO)N2` returned a viability index under setting [1] of 0.811 ± 0.098. The same measure, in the same setting: the same measure for `O=S(=O)(NC[C@@H]1[C@@H](c2ccccc2)[C@H](CO)N1CC1CC1)c1ccccc1`: 1.02 ± 0.049. In turn, `CCN(C[C@@H]1[C@@H](c2ccccc2)[C@H](CO)N1C(C)=O)C(=O)NC1CCCC1` had a viability index under setting [1] of 1.02 ± 0.044. On the same count and under the same terms, the same measure for `COc1ccc(CN2C[C@]3(CN(C3)C(=O)Cc3ccccc3)c3c([nH]c4cc(OC)ccc34)[C@@H]2CO)cc1`: 0.8953 ± 0.0047. In the case of `O=C(NCCN1CCCCC1)[C@@H]1N[C@@H]2c3ccc(-c4cccnc4)c(=O)n3C[C@@H]2[C@H]1CO`, under setting [1], the viability index was found to be 1.06 ± 0.075. As to `CN(C)CC(=O)N1[C@@H](C#N)[C@H](c2ccccc2-c2ccc(C(=O)N(C)C)cc2)[C@@H]1CO`, under setting [1], the viability index amounted to 1.13 ± 0.09. Still for that read-out and setting: the same measure for `COCC(=O)Nc1ccc2c(c1)C(=O)N(C)[C@@H]1CC[C@@H](CC(=O)N3CCc4ccccc4C3)O[C@H]1CO2`: 1.06 ± 0.056; for `C[C@H](CO)N1C[C@H](C)[C@H](CN(C)S(=O)(=O)c2cccs2)OCc2ccccc2-c2ccccc2C1=O`: 0.9959 ± 0.0086; for `CO[C@@H](CN(C)S(=O)(=O)c1cccc(Cl)c1)[C@@H](C)CN(C(=O)Nc1ccccc1F)[C@H](C)CO`: 1.004 ± 0.01. Under setting [1], `CN(C)CC(=O)N[C@@H]1CC[C@@H](CCNC(=O)C2CCC2)O[C@H]1CO` showed a viability index of 1.14 ± 0.07. Under setting [1], `CCN1[C@@H]2c3ccc(-c4ccc(C(=O)N(C)C)cc4)c(=O)n3C[C@@H]2[C@@H](CO)[C@@H]1C(=O)NCCOC` showed a viability index of 1.01 ± 0.05. Same read-out and setting: the same measure for `COc1cccc(NC(=O)N[C@@H]2CC[C@H](CC(=O)N3CCN(C)CC3)O[C@H]2CO)c1`: 1.04 ± 0.046; for `COc1ccc(S(=O)(=O)N2C[C@@H](O)COC[C@H]3O[C@H](CC(=O)N[C@H]4CCN(Cc5ccccc5)C4)CC[C@@H]32)cc1`: 1.12 ± 0.07; for `O=C(C1CCC1)N1CCCCN2[C@H](C1)[C@H](c1ccc(-c3ccncc3)cc1)[C@@H]2CO`: 1.06 ± 0.083. Still for that read-out and setting: the same measure for `CCc1csc(N2[C@H](C#N)[C@H](c3ccccc3C3=CCCC3)[C@H]2CO)n1`: 1.05 ± 0.2; for `CCCNC(=O)N1[C@H](CO)[C@H](c2ccccc2)C12CN(C(=O)C1CCCCC1)C2`: 1.08 ± 0.033; for `CN(C)C(=O)[C@@H]1[C@@H](CO)[C@@H]2Cn3c(ccc(C4=CCCC4)c3=O)[C@H]1N2S(=O)(=O)c1cn(C)cn1`: 0.984 ± 0.045.

Under setting [1], `CC(C)N(C[C@@H]1[C@@H](c2ccccc2)[C@H](CO)N1S(C)(=O)=O)C(=O)CN(C)C` had a viability index of 1.04 ± 0.044. The compound `COc1ccc(-c2ccc([C@@H]3[C@@H](CO)N4C(=O)CN(C(=O)Cc5ccccn5)C[C@@H]34)cc2)cc1` came in with a viability index under setting [1] of 1.08 ± 0.027. Still for that read-out and setting: the same measure for `C[C@@H](NC(=O)C[C@H]1C[C@@H]2c3cc(NS(=O)(=O)c4ccc(F)cc4)ccc3O[C@@H]2[C@@H](CO)O1)c1ccccc1`: 1.03 ± 0.043; for `COc1ccc(-c2ccc3n(c2=O)C[C@H]2[C@H](CO)[C@@H](C(=O)N4CCOCC4)N[C@@H]32)cc1`: 0.98 ± 0.074. The same measure, in the same setting: the same measure for `CCS(=O)(=O)N[C@H]1CC[C@H](CC(=O)NCc2ccc(Cl)cc2)O[C@H]1CO`: 1.02 ± 0.032; for `COc1ccc2c3c([nH]c2c1)[C@@H](CO)N(C[C@]31CN(C1)S(=O)(=O)c1cccs1)C(C)=O`: 1.092 ± 0.0038; for `CC(C)C#Cc1ccc([C@@H]2[C@@H](CO)N3C(=O)CN(C(=O)Cc4ccccc4)C[C@@H]23)cc1`: 1.07 ± 0.047. The same measure, in the same setting: to `Cc1noc(C)c1S(=O)(=O)N(C)C[C@@H]1Oc2c(NS(=O)(=O)c3cn(C)cn3)cccc2C(=O)N([C@@H](C)CO)C[C@H]1C` belongs 1.01 ± 0.038; to `C[C@H]1CC(=O)N[C@@H](c2ccccc2)C/C=C\C[C@H](c2ccc3c(c2)OCO3)NC1=O`, 1.01 ± 0.037; to `O=C(NCC[C@@H]1CC[C@H](NC(=O)c2ccncc2)[C@@H](CO)O1)Nc1ccc(Cl)cc1`, 1.09 ± 0.037. Under setting [1], `COc1ccc2c3c([C@@H](CO)N(C[C@]33CCN(CC4CCOCC4)CC3)C(=O)NC(C)C)n(C)c2c1` displayed a viability index of 0.97 ± 0.013. Compound `COc1ccc(C#Cc2ccc([C@@H]3[C@@H](CO)N4CCCCN(C(=O)Nc5cccc(F)c5)C[C@H]34)cc2)cc1` displayed a viability index (library set: Broad Institute Blood Stage) of 0.654 ± 0.049.
